# This is one part of the list. The full chains were built here from the parent and the listed change. Inactive controls read about 0.05.
# B1: TEV protease; numbered along this chain (parent)
# chain: MGESLFKGPRDYNPISSSICHLTNESDGHTTSLYGIGFGPFIITNKHLFRRNNGTLVVQSLHGVFKVKDTTTLQQHLVDGRDMIIIRMPKDFPPFPQKLKFREPQREERICLVTTNFQTKSMSSMVSDTSCTFPSGDGIFWKHWIQTKDGQCGSPLVSTRDGFIVGIHSASNFTNTNNYFTSVPKNFMELLTNQEAQQWVSGWRLNADSVLWGGHKVFMVKPEEPFQPVKEATQL
# Variants of: B1
# Experiment: raw area under fraction-flipped curve 0-4 h after induction (AUC4h, not background-subtracted), DNA-recorder readout of cleavage of the substrate (dimensionless); higher = more cleavage of the substrate by the protease variant
# Settings: temperature: 34 °C; time window: 0-4 h after rhamnose induction
# Protocol: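 In vivo DNA recorder in E. coli TOP10(DE3) ΔrhaA at 34 °C. Each TEVp single-site mutant (parent TEVp 0) is paired with a single-site variant of the 7-mer TEVs (canonical ENLYFQ|S). The substrate sits between flexible linkers in a Bxb1-sfGFP-TEVs-SsrA fusion, so cleavage stabilises Bxb1 and speeds flipping of a recombination array, read by NGS. The value is the raw area under the fraction-flipped curve over 0-4 h after rhamnose induction (AUC4h), with ≥20 reads per time point. It is not background-subtracted; inactive controls average about 0.047.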
# 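Further: Bxb1 expression induced with 0.2% (w/v) L-rhamnose at OD600 near 0.5, cultures sampled hourly, flipped fraction per protease–substrate barcode pair counted by paired-end Illumina sequencing.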
Variant,area with substrate EALYFQS,area with substrate EDLYFQS,area with substrate EHLYFQS,area with substrate ELLYFQS,area with substrate EQLYFQS,area with substrate ESLYFQS,area with substrate EELYFQS,area with substrate EKLYFQS,area with substrate EVLYFQS,area with substrate EWLYFQS
MGESLFKGPRDYNPISSSICHLTNESDGHTTSLYGIGFGPFIITNKHLFRRNNGTLVGQSLHGVFKVKDTTTLQQHLVDGRDMIIIRMPKDFPPFPQKLKFREPQREERICLVTTNFQTKSMSSMVSDTSCTFPSGDGIFWKHWIQTKDGQCGSPLVSTRDGFIVGIHSASNFTNTNNYFTSVPKNFMELLTNQEAQQWVSGWRLNADSVLWGGHKVFMVKPEEPFQPVKEATQL [V58G],0.0689,0.0718,0.0767,0.052,0.0841,0.0585,–,–,–,–
MGESLFKGPRDYNPISSSICHLTNESDGHTTSLYGIGFGPFIITNKHLFRRNNGTLVMQSLHGVFKVKDTTTLQQHLVDGRDMIIIRMPKDFPPFPQKLKFREPQREERICLVTTNFQTKSMSSMVSDTSCTFPSGDGIFWKHWIQTKDGQCGSPLVSTRDGFIVGIHSASNFTNTNNYFTSVPKNFMELLTNQEAQQWVSGWRLNADSVLWGGHKVFMVKPEEPFQPVKEATQL [V58M],0.154,–,–,–,0.113,0.0939,0.115,0.104,0.0921,0.0887
MGESLFKGPRDYNPISSSICHLTNESDGHTTSLYGIGFGPFIITNKHLFRRNNGTLVVHSLHGVFKVKDTTTLQQHLVDGRDMIIIRMPKDFPPFPQKLKFREPQREERICLVTTNFQTKSMSSMVSDTSCTFPSGDGIFWKHWIQTKDGQCGSPLVSTRDGFIVGIHSASNFTNTNNYFTSVPKNFMELLTNQEAQQWVSGWRLNADSVLWGGHKVFMVKPEEPFQPVKEATQL [Q59H],0.113,0.14,0.0987,–,0.136,0.101,0.12,0.11,0.0798,0.0812
MGESLFKGPRDYNPISSSICHLTNESDGHTTSLYGIGFGPFIITNKHLFWRNNGTLVVQSLHGVFKVKDTTTLQQHLVDGRDMIIIRMPKDFPPFPQKLKFREPQREERICLVTTNFQTKSMSSMVSDTSCTFPSGDGIFWKHWIQTKDGQCGSPLVSTRDGFIVGIHSASNFTNTNNYFTSVPKNFMELLTNQEAQQWVSGWRLNADSVLWGGHKVFMVKPEEPFQPVKEATQL [R50W],0.138,–,–,–,–,0.124,0.145,–,0.161,–
MGESLFKGPRDYNPISSSICHLTNESDGHTTSLYGIGFGPFIITNKHLFNRNNGTLVVQSLHGVFKVKDTTTLQQHLVDGRDMIIIRMPKDFPPFPQKLKFREPQREERICLVTTNFQTKSMSSMVSDTSCTFPSGDGIFWKHWIQTKDGQCGSPLVSTRDGFIVGIHSASNFTNTNNYFTSVPKNFMELLTNQEAQQWVSGWRLNADSVLWGGHKVFMVKPEEPFQPVKEATQL [R50N],0.16,–,–,–,–,–,–,–,–,–
MGESLFKGPRDYNPISSSICHLTNESDGHTTSLYVIGFGPFIITNKHLFRRNNGTLVVQSLHGVFKVKDTTTLQQHLVDGRDMIIIRMPKDFPPFPQKLKFREPQREERICLVTTNFQTKSMSSMVSDTSCTFPSGDGIFWKHWIQTKDGQCGSPLVSTRDGFIVGIHSASNFTNTNNYFTSVPKNFMELLTNQEAQQWVSGWRLNADSVLWGGHKVFMVKPEEPFQPVKEATQL [G35V],0.0384,0.0361,0.0417,–,0.0232,–,–,0.0448,0.0572,0.0632
MGESLFKGPRDYNPISSSICHLTNESDGHTTSLYGICFGPFIITNKHLFRRNNGTLVVQSLHGVFKVKDTTTLQQHLVDGRDMIIIRMPKDFPPFPQKLKFREPQREERICLVTTNFQTKSMSSMVSDTSCTFPSGDGIFWKHWIQTKDGQCGSPLVSTRDGFIVGIHSASNFTNTNNYFTSVPKNFMELLTNQEAQQWVSGWRLNADSVLWGGHKVFMVKPEEPFQPVKEATQL [G37C],0.121,–,–,–,0.114,0.111,0.124,0.138,–,–
MGESLFKGPRDYNPISSSICHLTNESDGHDTSLYGIGFGPFIITNKHLFRRNNGTLVVQSLHGVFKVKDTTTLQQHLVDGRDMIIIRMPKDFPPFPQKLKFREPQREERICLVTTNFQTKSMSSMVSDTSCTFPSGDGIFWKHWIQTKDGQCGSPLVSTRDGFIVGIHSASNFTNTNNYFTSVPKNFMELLTNQEAQQWVSGWRLNADSVLWGGHKVFMVKPEEPFQPVKEATQL [T30D],0.103,–,–,–,–,0.0739,0.0827,0.0988,0.098,–
MGESLFKGPRDYNPISSSICHLTNESDGHTTSDYGIGFGPFIITNKHLFRRNNGTLVVQSLHGVFKVKDTTTLQQHLVDGRDMIIIRMPKDFPPFPQKLKFREPQREERICLVTTNFQTKSMSSMVSDTSCTFPSGDGIFWKHWIQTKDGQCGSPLVSTRDGFIVGIHSASNFTNTNNYFTSVPKNFMELLTNQEAQQWVSGWRLNADSVLWGGHKVFMVKPEEPFQPVKEATQL [L33D],0.0629,0.0734,0.0394,0.0532,0.0562,0.0661,0.0628,0.0875,0.0663,0.069
MGESLFKGPRDYNPISSSICHLTNESDGHTISLYGIGFGPFIITNKHLFRRNNGTLVVQSLHGVFKVKDTTTLQQHLVDGRDMIIIRMPKDFPPFPQKLKFREPQREERICLVTTNFQTKSMSSMVSDTSCTFPSGDGIFWKHWIQTKDGQCGSPLVSTRDGFIVGIHSASNFTNTNNYFTSVPKNFMELLTNQEAQQWVSGWRLNADSVLWGGHKVFMVKPEEPFQPVKEATQL [T31I],0.141,0.166,–,–,–,0.117,0.138,0.0953,0.107,0.104

# Same assay, conditions: temperature: 34 °C; time window: 0-4 h after rhamnose induction
Variant,area with substrate EGLYFQS,area with substrate EILYFQS,area with substrate EPLYFQS,area with substrate ERLYFQS,area with substrate ETLYFQS,area with substrate EMLYFQS,area with substrate EFLYFQS,area with substrate EYLYFQS
MGESLFKGPRDYNPISSSICHLTNESDGHTTSLYGIGFGPFIITNKHLFRRNNGTLVVHSLHGVFKVKDTTTLQQHLVDGRDMIIIRMPKDFPPFPQKLKFREPQREERICLVTTNFQTKSMSSMVSDTSCTFPSGDGIFWKHWIQTKDGQCGSPLVSTRDGFIVGIHSASNFTNTNNYFTSVPKNFMELLTNQEAQQWVSGWRLNADSVLWGGHKVFMVKPEEPFQPVKEATQL [Q59H],0.102,0.0812,0.0791,0.0972,0.112,–,–,–
MGESLFKGPRDYNPISSSICHLTNESDGHTTSLYGIGFGPFIITNKHLFWRNNGTLVVQSLHGVFKVKDTTTLQQHLVDGRDMIIIRMPKDFPPFPQKLKFREPQREERICLVTTNFQTKSMSSMVSDTSCTFPSGDGIFWKHWIQTKDGQCGSPLVSTRDGFIVGIHSASNFTNTNNYFTSVPKNFMELLTNQEAQQWVSGWRLNADSVLWGGHKVFMVKPEEPFQPVKEATQL [R50W],–,–,0.155,0.131,0.161,0.137,–,–
MGESLFKGPRDYNPISSSICHLTNESDGHTTSLYVIGFGPFIITNKHLFRRNNGTLVVQSLHGVFKVKDTTTLQQHLVDGRDMIIIRMPKDFPPFPQKLKFREPQREERICLVTTNFQTKSMSSMVSDTSCTFPSGDGIFWKHWIQTKDGQCGSPLVSTRDGFIVGIHSASNFTNTNNYFTSVPKNFMELLTNQEAQQWVSGWRLNADSVLWGGHKVFMVKPEEPFQPVKEATQL [G35V],–,0.0484,–,0.0619,–,–,0.0272,–
MGESLFKGPRDYNPISSSICHLTNESDGHTTSLYGICFGPFIITNKHLFRRNNGTLVVQSLHGVFKVKDTTTLQQHLVDGRDMIIIRMPKDFPPFPQKLKFREPQREERICLVTTNFQTKSMSSMVSDTSCTFPSGDGIFWKHWIQTKDGQCGSPLVSTRDGFIVGIHSASNFTNTNNYFTSVPKNFMELLTNQEAQQWVSGWRLNADSVLWGGHKVFMVKPEEPFQPVKEATQL [G37C],–,0.0917,–,–,–,–,0.0807,–
MGESLFKGPRDYNPISSSICHLTNESDGHDTSLYGIGFGPFIITNKHLFRRNNGTLVVQSLHGVFKVKDTTTLQQHLVDGRDMIIIRMPKDFPPFPQKLKFREPQREERICLVTTNFQTKSMSSMVSDTSCTFPSGDGIFWKHWIQTKDGQCGSPLVSTRDGFIVGIHSASNFTNTNNYFTSVPKNFMELLTNQEAQQWVSGWRLNADSVLWGGHKVFMVKPEEPFQPVKEATQL [T30D],0.112,–,0.12,–,–,0.111,–,–
MGESLFKGPRDYNPISSSICHLTNESDGHTTSDYGIGFGPFIITNKHLFRRNNGTLVVQSLHGVFKVKDTTTLQQHLVDGRDMIIIRMPKDFPPFPQKLKFREPQREERICLVTTNFQTKSMSSMVSDTSCTFPSGDGIFWKHWIQTKDGQCGSPLVSTRDGFIVGIHSASNFTNTNNYFTSVPKNFMELLTNQEAQQWVSGWRLNADSVLWGGHKVFMVKPEEPFQPVKEATQL [L33D],0.0574,–,0.0689,0.0665,0.0537,0.0623,–,–
MGESLFKGPRDYNPISSSICHLTNESDGHTISLYGIGFGPFIITNKHLFRRNNGTLVVQSLHGVFKVKDTTTLQQHLVDGRDMIIIRMPKDFPPFPQKLKFREPQREERICLVTTNFQTKSMSSMVSDTSCTFPSGDGIFWKHWIQTKDGQCGSPLVSTRDGFIVGIHSASNFTNTNNYFTSVPKNFMELLTNQEAQQWVSGWRLNADSVLWGGHKVFMVKPEEPFQPVKEATQL [T31I],–,0.129,–,–,–,0.123,–,0.108
